In the supplement of paper PMC3334620:
Over roughly 33,000 sequences, “E-score (-0.5 to 0.5)” has its median near -0.053; the highest 2% begin near 0.37. The list shows a part of the results.

molecular target: Hap1 (UniProt P0CE41); test: PBM E-score (8-mer binding enrichment) (E-score (-0.5 to 0.5)); higher = stronger / more preferred TF binding; most listed sequences are background and not binding sites; settings: protein concentration: 200 nM; construct: GST-DNA-binding domain
Procedure: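 Universal 'all 10-mer' protein binding microarrays (Agilent AMADID 015681) probed with GST-tagged S. cerevisiae TFs (full-length or DBD) made by in vitro transcription/translation (PURExpress), about 100-200 nM. Bound TF was detected with fluorescent anti-GST. Each ungapped 8-mer (which stands for itself and its reverse complement) is scored by the PBM enrichment score (E-score), a modified Wilcoxon-Mann-Whitney statistic from -0.5 to +0.5, computed with the Universal PBM Analysis Suite. Scale: above 0.35 generally sequence-specific binding.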

Chain of UniProt P0CE41 (P0CE41 whole entry, the tested form may be a part): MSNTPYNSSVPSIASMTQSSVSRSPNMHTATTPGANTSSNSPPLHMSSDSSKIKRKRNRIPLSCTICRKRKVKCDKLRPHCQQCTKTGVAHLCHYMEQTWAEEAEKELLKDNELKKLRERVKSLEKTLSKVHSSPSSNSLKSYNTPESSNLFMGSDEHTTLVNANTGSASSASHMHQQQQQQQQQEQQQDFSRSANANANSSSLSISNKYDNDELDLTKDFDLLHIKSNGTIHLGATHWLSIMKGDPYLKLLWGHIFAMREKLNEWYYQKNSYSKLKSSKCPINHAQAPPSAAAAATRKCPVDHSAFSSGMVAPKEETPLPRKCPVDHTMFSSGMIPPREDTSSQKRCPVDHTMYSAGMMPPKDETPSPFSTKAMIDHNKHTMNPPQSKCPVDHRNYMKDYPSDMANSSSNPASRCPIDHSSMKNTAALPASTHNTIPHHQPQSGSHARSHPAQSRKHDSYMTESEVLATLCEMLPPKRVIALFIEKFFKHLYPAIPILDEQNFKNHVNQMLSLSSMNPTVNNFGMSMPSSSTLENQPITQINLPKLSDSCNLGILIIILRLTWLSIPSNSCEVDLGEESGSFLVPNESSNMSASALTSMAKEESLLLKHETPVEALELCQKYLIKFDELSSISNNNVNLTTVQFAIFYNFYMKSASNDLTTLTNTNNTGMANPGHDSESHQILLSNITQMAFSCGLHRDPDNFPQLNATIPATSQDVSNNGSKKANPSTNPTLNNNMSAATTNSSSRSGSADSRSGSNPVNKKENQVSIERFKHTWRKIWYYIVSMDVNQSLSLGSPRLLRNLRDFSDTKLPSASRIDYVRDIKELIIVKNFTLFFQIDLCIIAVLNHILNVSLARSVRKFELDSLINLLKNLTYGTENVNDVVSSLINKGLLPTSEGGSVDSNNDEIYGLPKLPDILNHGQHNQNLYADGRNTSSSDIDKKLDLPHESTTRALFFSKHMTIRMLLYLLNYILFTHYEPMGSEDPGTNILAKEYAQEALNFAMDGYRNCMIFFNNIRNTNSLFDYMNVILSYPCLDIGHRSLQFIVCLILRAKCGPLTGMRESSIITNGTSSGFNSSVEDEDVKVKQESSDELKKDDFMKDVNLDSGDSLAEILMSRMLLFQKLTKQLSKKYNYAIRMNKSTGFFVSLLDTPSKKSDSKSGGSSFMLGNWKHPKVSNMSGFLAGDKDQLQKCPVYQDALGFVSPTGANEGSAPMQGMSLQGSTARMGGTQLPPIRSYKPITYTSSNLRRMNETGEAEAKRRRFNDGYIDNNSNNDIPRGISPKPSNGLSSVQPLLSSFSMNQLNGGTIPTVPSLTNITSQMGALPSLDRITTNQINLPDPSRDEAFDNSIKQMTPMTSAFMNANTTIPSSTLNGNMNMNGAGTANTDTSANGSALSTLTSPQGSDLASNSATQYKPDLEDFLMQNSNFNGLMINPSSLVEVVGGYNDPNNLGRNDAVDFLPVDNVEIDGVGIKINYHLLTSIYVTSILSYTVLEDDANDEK

| Sequence | PBM E-score |
| --- | --- |
| GGCCCACA | -0.01 |
| CGATGAAC | 0.169 |
| ACAAGTGG | -0.361 |
| CCTCGCGA | -0.042 |
| AGGCGGTC | -0.0534 |
| ACATGCAA | -0.169 |
| ATCCGTAC | 0.147 |
| ATAAATTC | 0.0886 |
| AACAAGGT | -0.208 |
| AAGTCTAC | -0.151 |
| CCGCACTC | 0.119 |
| CTGGTCAC | -0.325 |
| CGCATATC | 0.206 |
| CAGGCTAC | -0.104 |
| GCCCCAGA | -0.0764 |
| CATGATCG | 0.0268 |
| CCACACCC | 0.0324 |
| TACTCCCA | -0.143 |
| CGGCTAGA | 0.182 |
| ACCGGACA | 0.411 |
| CAAAGCCC | 0.164 |
| AGGAGTTG | -0.0647 |

| Sequence | PBM E-score |
| --- | --- |
| ACGTGGAC | -0.0326 |
| AAGCATAT | -0.0158 |
| AACCTTCA | -0.258 |
| AGCCTACC | 0.00118 |
| CGTGTCGA | -0.187 |
| GCAATAAA | 0.187 |
| AATATACG | -0.0398 |
| CATAACTC | 0.128 |
| CAGGCAAC | -0.238 |
| CACGTATG | -0.111 |
| CGGAATCA | 0.328 |
| GGCCTTCA | -0.0156 |
| AAATGGAG | -0.0137 |
| CGTACCGC | 0.0872 |
| ACACGGGA | 0.116 |
| CAATTTGG | -0.257 |
| AACCGACA | 0.129 |
| GCTTGTCA | -0.00494 |
| CTCCCACA | -0.0245 |
| AACACTTC | -0.118 |
| ACCACCCT | -0.13 |
| CTATGGGC | -0.0743 |

| Sequence | PBM E-score |
| --- | --- |
| ATCGGCAC | 0.315 |
| CCCCGCGC | 0.0744 |
| GCCCGGGA | 0.316 |
| ACGGGAGG | 0.0415 |
| CAACGAAA | -0.058 |
| GTTAATCA | -0.0449 |
| ATTAGGAC | -0.146 |
| TCTTACAA | -0.186 |
| CCAAGTTC | 0.105 |
| GTGTTCCA | -0.0624 |
| CGGCCCTA | 0.318 |
| GTAAACTA | -0.08 |
| GCCGCTCA | 0.0121 |
| GCACCAGC | -0.0483 |
| ATCCAGAC | 0.099 |
| GCACCAAA | -0.136 |
| CTTAGTAC | -0.0465 |
| AGAGGTGA | -0.23 |
| AGTTAATC | -0.0235 |
| AGTCAACG | -0.207 |
| ATGGAACG | -0.0709 |
| GAAAACAC | 0.193 |

| Sequence | PBM E-score |
| --- | --- |
| AGTTGCGG | 0.153 |
| ACGCCCTA | 0.0779 |
| AGCCGTGA | 0.0986 |
| ACAGTTAA | -0.128 |
| ATAATGTG | -0.188 |
| CGTATAAG | 0.09 |
| ATCTGACG | -0.281 |
| ACGACAGC | -0.166 |
| AATAGATT | 0.0018 |
| CACCCTAG | -0.133 |
| CGATTAAG | -0.0493 |
| AATGTGGC | -0.1 |
| AAGATACT | 0.0899 |
| ACCCTCAG | -0.197 |
| GCGAGCGA | 0.0699 |
| ATCGCATG | 0.0714 |
| CATTATGC | 0.0638 |
| GGGACACA | -0.0551 |
| CCCATATA | -0.128 |
| AGTGAAAC | -0.162 |
| CCCATCCG | 0.21 |
| CATATGAC | -0.131 |

| Sequence | PBM E-score |
| --- | --- |
| ATATTCTC | -0.0331 |
| GAGTTACA | 0.0965 |
| GCACTTCA | -0.0709 |
| CATATAAA | -0.201 |
| TCTGAAAA | -0.00301 |
| ATGCAAAA | -0.124 |
| GAGCCACC | -0.127 |
| CATCACCG | 0.212 |
| CGGATCTC | 0.279 |
| CCTCGAAC | -0.2 |
| CTCTCGGA | 0.4 |
| GACGCAAC | 0.0888 |
| AAGTCCAT | -0.00211 |
| ACAAGGTC | -0.251 |
| ATCCATCC | 0.273 |
| GTAAGCCA | -0.354 |
| CATCATGC | -0.317 |
| AAGCGGAA | 0.211 |
| ATTTCTTG | 0.0278 |
| AACCCAAT | -0.185 |
| CAACCCAC | -0.131 |
